Assay results as given in the RNAGym collection of RNA variant scans (doi:10.7554/elife.90254).
Read counts are not given, so values of variants with three or more changes are uncertain.

B1: LINE1-full (parent)
chain: UACGUAGGUGGUUUUCCCCUGAUAGUGCUAAGGGGGCCUGGAAGUUUGGACUGGGCAGAGCUCAACACAGCGUGGCAAAGUGGCUGUGGCUAGACUGCCUCUCUGGAUUCCUCGUCACUCAGCAGGGCAUCUCUGAGAGAAAUGCC

Variants of: B1
Experiment: self-cleavage, relative activity (ratio to wild type); higher = more cleavage; in vitro, sequencing; the parent is a self-cleaving ribozyme

| Variant | self-cleavage |
| --- | --- |
| U62C U100C U115C U143C | 0 |
| U12C A77U U87A | 0.12 |
| G34A G48U A57G A65G A78U G106A G135A A142G | 0.02 |
| U26C A64G A141G | 0.4 |
| A24U U109A A141G | 1.59 |
| U47C G48A G86A G93A G126A U130A | 0 |
| A22U G60A U62A G114A U130C | 0.03 |
| U13C U26C C51U U85C | 0 |
| U85C U102C A138G | 0 |
| A78G U100A C116U A138U A142U | 0.07 |
| U1A U12A A65G C90U | 0.22 |
| U39C A43G U73A U102A U112C | 0.99 |
| U45C A129G U143C | 2.81 |
| A57G A78U A124G | 0.6 |
| U9G U134A A136G | 0.85 |
| U29C A42U A136G | 1.12 |
| A67G U96A A138G | 0.04 |
| U13A U73C A79G A138G | 1.53 |
| C3U A50G A67U C113U A121U U134C | 0.07 |
| U12C U47G A79G G97A A121G | 0.17 |
| U14C C98U U115C | 0.98 |

| Variant | self-cleavage |
| --- | --- |
| A22C A43G C84U U104A A136G | 0.06 |
| U52C U112A U132C | 1.81 |
| U9C U47G A136G U143A | 1.5 |
| G11U U15C A92G C95A A140G | 0.03 |
| U47A A50G A69G U91A U119A | 0.4 |
| U20A A67G A69U A107G | 0 |
| U14C A67U U134A | 0.12 |
| A64G A67U A140U | 0.03 |
| A78U U108A U112A | 0 |
| C51U U112C A129G | 1.72 |
| U62C A79G U112A U115C | 0 |
| U46C A79G U108C | 0.42 |
| U5C A77U U102C | 0.43 |
| A2G A121U G122A A138G | 1.05 |
| U39G A67G G106U A117G | 0.24 |
| A57G A138G A141G | 1.65 |
| U20C A42G U143A | 0.83 |
| G75A A77G U143C | 1.01 |
| U1C U108C A142G | 1.01 |
| G34A A50G C56U A78U | 0.05 |
| G34A A65U U81C | 0.04 |

| Variant | self-cleavage |
| --- | --- |
| C101U U104A A141G A142G | 1.39 |
| A42G A65G A138G | 0.11 |
| A129U A138G U143C | 1.33 |
| U62A U132C U134C | 0.11 |
| G54A U62C U104C U119C | 0.1 |
| U62C U87C U119C | 0 |
| U5C U14C U112G | 0.77 |
| U23A A79G A142G | 1.28 |
| U112A A129G A141G | 1.31 |
| U62C G82A U115A | 0.09 |
| U9G A43G U108C | 0 |
| A57G U100G U109A A117C U119A | 1.38 |
| A78G G88U U108C U130A | 0.07 |
| A22G A94U U132C | 0.41 |
| U20C U100A A124G | 0 |
| U13C A69G A117G | 0 |
| A2G C63U A107U | 0.1 |
| U23C U26C G27U A59G C133U A141G | 0.19 |
| U14C A78G U109C A136G | 0.17 |
| U45C G105A U130C A142G | 1.74 |
| U52A A57U U109C | 0.03 |

| Variant | self-cleavage |
| --- | --- |
| U20C G32A A50G A57G | 0 |
| A78G U87C U96G G122U | 0.19 |
| A69U U87C A141G | 0.03 |
| U47A U87C U102A U130C | 0.23 |
| A43G A79G G89C A138G | 0.1 |
| C18G U73C U108A A117G | 1.02 |
| C3A G4U U15A | 0.52 |
| U15C U46C U52A | 1.22 |
| U39A U96C U134C A138U | 0.1 |
| U15A G44A A59G A142G | 0.07 |
| G11A U12G G32A A59G | 0.31 |
| U9C A140G A141G | 0.63 |
| U13C U15C U46A G60C A77G U96G | 0.31 |
| U12C U23C A69G | 0.57 |
| U14C G32U A67G | 0.55 |
| G8A A67G G70A | 0.06 |
| U14C G40A U45C U52A A57U A129G | 0.12 |
| U39A A77G U115C A142G | 2.21 |
| U1A G53A A57U U119C | 0.3 |
| U100A A138G A141G | 1.6 |
| A59G G88U G97A A121G | 0.02 |
